Test results published in article PMC6993218.
No constants are given. Whether binding was seen depends on the method and setting. For some assays here: In cells and extracts the contact can be indirect. Some binding calls cover weakened binding; strength is not graded here. For some assays here: Sequences can lack the tags named with a protein. Values belong to the molecule of their own block, whether it stands above or below them.

Protein sequences, listed by entry. Tags and fused reporters are not part of them. Lines headed by an entry give the natural chain unless they say otherwise; changes in a name come on top.
UniProt Q92793: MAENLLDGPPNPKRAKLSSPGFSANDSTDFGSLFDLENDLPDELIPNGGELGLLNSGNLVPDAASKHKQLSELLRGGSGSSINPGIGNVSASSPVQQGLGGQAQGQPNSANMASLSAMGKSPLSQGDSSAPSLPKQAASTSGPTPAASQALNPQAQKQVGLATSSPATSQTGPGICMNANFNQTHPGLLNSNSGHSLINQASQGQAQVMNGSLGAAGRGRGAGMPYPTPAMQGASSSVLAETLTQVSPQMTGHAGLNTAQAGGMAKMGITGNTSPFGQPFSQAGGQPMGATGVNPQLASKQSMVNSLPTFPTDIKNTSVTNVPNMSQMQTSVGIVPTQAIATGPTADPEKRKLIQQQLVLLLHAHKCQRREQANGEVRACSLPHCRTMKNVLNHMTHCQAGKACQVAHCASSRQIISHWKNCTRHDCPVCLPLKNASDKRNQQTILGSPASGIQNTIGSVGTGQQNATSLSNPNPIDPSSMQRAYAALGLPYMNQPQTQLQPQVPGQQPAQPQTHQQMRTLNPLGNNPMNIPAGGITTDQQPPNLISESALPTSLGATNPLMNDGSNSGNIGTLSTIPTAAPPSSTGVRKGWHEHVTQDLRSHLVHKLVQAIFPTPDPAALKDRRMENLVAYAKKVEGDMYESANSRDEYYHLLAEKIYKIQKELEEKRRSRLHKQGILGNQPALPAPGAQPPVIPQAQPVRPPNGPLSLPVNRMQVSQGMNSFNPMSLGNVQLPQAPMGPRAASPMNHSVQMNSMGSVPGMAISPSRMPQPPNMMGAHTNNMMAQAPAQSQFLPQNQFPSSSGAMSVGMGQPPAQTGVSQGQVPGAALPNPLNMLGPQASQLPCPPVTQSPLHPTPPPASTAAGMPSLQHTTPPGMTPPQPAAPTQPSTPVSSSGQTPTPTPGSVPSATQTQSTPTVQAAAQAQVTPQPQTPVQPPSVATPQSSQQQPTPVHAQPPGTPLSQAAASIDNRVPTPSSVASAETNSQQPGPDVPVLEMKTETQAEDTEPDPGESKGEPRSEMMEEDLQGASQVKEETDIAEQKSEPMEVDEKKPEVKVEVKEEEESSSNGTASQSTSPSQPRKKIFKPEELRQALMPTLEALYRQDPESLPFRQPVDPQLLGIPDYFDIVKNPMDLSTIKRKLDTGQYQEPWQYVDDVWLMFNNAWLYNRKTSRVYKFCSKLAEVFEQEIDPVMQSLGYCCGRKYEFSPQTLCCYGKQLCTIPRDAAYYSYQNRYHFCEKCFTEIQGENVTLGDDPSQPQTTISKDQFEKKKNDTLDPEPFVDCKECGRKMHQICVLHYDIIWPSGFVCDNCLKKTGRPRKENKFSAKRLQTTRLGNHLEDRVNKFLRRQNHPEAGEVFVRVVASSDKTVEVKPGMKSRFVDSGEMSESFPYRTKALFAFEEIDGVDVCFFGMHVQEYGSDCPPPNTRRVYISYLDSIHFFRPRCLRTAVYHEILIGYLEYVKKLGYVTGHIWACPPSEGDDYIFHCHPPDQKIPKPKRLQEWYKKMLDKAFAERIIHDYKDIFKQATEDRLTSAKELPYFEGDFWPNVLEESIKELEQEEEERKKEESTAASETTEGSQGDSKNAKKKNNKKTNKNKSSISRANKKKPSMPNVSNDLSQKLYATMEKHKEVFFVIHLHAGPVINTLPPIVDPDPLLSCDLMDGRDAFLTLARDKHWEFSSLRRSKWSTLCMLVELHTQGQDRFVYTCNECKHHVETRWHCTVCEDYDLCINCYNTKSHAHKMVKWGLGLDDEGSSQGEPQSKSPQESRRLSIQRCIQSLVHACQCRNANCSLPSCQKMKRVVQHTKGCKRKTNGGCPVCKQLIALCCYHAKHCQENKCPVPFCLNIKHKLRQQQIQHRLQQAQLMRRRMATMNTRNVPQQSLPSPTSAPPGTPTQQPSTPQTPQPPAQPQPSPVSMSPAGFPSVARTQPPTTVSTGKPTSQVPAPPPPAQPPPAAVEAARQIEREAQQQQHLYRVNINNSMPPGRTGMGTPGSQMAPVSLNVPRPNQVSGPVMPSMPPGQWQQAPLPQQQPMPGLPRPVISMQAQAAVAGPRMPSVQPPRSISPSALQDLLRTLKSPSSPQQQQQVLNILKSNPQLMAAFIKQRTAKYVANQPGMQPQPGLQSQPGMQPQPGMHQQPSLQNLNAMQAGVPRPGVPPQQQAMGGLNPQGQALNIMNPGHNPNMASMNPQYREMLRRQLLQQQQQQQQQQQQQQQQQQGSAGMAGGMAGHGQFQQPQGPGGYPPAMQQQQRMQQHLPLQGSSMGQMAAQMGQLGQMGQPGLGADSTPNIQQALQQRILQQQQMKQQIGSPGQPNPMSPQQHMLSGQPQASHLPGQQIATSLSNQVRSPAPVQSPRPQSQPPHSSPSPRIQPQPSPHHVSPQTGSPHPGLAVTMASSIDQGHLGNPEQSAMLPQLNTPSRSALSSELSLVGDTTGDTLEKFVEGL

Key:
[1] = target: DOT1L (endogenous) (human (endogenous in HCT116)) (UniProt Q8TEK3); test: co-IP; endogenous proteins, HCT116 cells; lysis in 20 mM Tris-HCl pH 7.9, 1% NP-40, 150 mM NaCl, 2 mM EDTA, 10% glycerol; antibody or control IgG overnight, protein A/G sepharose beads at 4°C
[2] = target: Flag-DOT1L(WT) (UniProt Q8TEK3); test: co-IP; exogenous (transfected) proteins, HCT116 cells; NP-40 lysis buffer, protein A/G sepharose beads
[3] = target: DOT1L (endogenous) (human (endogenous in HCT116)) (UniProt Q8TEK3); test: co-IP; endogenous proteins, nuclear proteins extracted from HCT116 cells (LoVo cells too); also after transfection of HA-CBP or pcDNA and after CBP siRNA or shNC
[4] = target: Flag-DOT1L(WT) (UniProt Q8TEK3); test: co-IP; HCT116 cells transfected with DOT1L(WT), DOT1L(K358Q) or DOT1L(K358R); co-IP with RNF8
[5] = target: Flag-DOT1L(K358R) (UniProt Q8TEK3); test: as above
[6] = substrate: CBP (GST pull-down of Figure S6A) (UniProt Q92793); test: pull-down; GST pull-down of RNF8 and CBP (Figure S6A); which protein carried GST is not stated
[7] = target: T1, GST-DOT1L STAT1 binding domain (580-1138aa) (UniProt Q8TEK3); test: pull-down; purified GST or GST-DOT1L fragments on glutathione-Sepharose 4B beads incubated with His-RNF8 overnight at 4°C; washed with TEN buffer; western blot for His-RNF8, CBB staining for the GST proteins; both purified
T1 sequence: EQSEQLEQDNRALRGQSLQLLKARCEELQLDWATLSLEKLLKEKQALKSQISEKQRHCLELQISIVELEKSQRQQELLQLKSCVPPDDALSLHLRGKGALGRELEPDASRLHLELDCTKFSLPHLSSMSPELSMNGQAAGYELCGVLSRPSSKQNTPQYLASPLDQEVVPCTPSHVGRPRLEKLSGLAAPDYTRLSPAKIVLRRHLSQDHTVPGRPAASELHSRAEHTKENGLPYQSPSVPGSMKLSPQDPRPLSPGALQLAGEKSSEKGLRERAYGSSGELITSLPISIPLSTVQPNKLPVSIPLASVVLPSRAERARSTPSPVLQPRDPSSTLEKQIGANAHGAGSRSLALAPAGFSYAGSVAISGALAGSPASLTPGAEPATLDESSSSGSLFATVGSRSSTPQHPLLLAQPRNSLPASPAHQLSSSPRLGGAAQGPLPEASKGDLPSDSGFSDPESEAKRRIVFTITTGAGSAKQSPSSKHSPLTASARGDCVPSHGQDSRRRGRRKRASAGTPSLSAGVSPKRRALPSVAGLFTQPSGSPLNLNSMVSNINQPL

[8] = target: GST-DOT1L N-terminal domain (1-416aa) (UniProt Q8TEK3); test: as above
[9] = target: T2, GST-DOT1L C-terminal domain (1139-1537aa) (UniProt Q8TEK3); test: as above
T2 sequence: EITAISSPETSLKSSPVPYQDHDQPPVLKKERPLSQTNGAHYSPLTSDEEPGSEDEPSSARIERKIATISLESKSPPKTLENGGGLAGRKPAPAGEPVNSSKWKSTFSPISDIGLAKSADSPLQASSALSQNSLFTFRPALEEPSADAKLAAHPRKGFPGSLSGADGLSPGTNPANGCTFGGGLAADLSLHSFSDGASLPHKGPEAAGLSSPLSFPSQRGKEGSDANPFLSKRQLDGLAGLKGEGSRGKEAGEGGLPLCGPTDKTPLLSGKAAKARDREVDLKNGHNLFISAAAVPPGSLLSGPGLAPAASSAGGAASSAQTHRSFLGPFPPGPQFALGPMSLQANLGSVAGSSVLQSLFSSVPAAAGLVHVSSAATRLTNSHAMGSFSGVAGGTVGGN

[10] = target: T3, GST-DOT1L N-terminal central region domain (417-579aa) (UniProt Q8TEK3); test: as above
T3 sequence: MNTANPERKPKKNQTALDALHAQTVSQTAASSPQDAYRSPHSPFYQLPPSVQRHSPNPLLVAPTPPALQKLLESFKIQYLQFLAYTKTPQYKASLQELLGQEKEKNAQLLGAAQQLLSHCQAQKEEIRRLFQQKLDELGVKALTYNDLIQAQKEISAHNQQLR

[11] = target: Flag-DOT1L(WT) (UniProt Q8TEK3); test: co-IP; exogenous (transfected) proteins, nuclear proteins extracted from HCT116 cells (LoVo cells too)

binding [3]: binds
binding [4]: binds
binding [5]: binds
B1: RNF8 (endogenous) (protein, UniProt O76064 1-485)
chain: MGEPGFFVTGDRAGGRSWCLRRVGMSAGWLLLEDGCEVTVGRGFGVTYQLVSKICPLMISRNHCVLKQNPEGQWTIMDNKSLNGVWLNRARLEPLRVYSIHQGDYIQLGVPLENKENAEYEYEVTEEDWETIYPCLSPKNDQMIEKNKELRTKRKFSLDELAGPGAEGPSNLKSKINKVSCESGQPVKSQGKGEVASTPSDNLDPKLTALEPSKTTGAPIYPGFPKVTEVHHEQKASNSSASQRSLQMFKVTMSRILRLKIQMQEKHEAVMNVKKQTQKGNSKKVVQMEQELQDLQSQLCAEQAQQQARVEQLEKTFQEEEQHLQGLEIAQGEKDLKQQLAQALQEHWALMEELNRSKKDFEAIIQAKNKELEQTKEEKEKMQAQKEEVLSHMNDVLENELQCIICSEYFIEAVTLNCAHSFCSYCINEWMKRKIECPICRKDIKSKTYSLVLDNCINKMVNNLSSEVKERRIVLIRERKAKRLF

binding [6]: no binding
B2: RNF8 (GST pull-down of Figure S6A) (protein, UniProt O76064 1-485)
chain: B1 chain

Continued, molecule first:

Molecule: CBP (endogenous) (from UniProt Q92793 1-2442)
binding [1]: binds

Molecule: HA-CBP (from UniProt Q92793 1-2442)
binding [2]: binds

B3: His-RNF8 (protein, UniProt O76064 1-485)
chain: B1 chain
binding [7]: binds
binding [8]: binds
binding [9]: no binding
binding [10]: binds

B4: GFP-RNF8 (protein, UniProt O76064 1-485)
chain: B1 chain
binding [11]: binds
